Laboratory results: PubChem BioAssay AID1631 (National Center for Advancing Translational Sciences (NCATS), 2009)
Values joined by “and” are separate entries in the source; they are usually repeats but may differ in a detail not shown here. Equal values may be shown once. The whole screen tested about 260,000 compounds, of which about 890 (0.34%) were called active. The inconclusive results got no clear call from the source; some entries with a clear call stand among them for comparison. The call rests on the fitted dose curve; in most records, active means well fitted activation curve with a large enough effect; inconclusive means small, poorly fitted or top-dose-only effect; inactive means no such curve, though single readings can be large or run the other way. Potencies of inconclusive entries are doubtful fits and often do not repeat.
Further: nearly all actives have a fitted effect of over 55% in size.
On the % scale 0 is the no-effect control and ±100 the full control effect; potency means the concentration at half of the fitted maximal effect; tags describe the fitted curve by direction and shape.

These compounds were tested against Pyruvate kinase PKM (Homo sapiens) (UniProt P14618) (assay: qHTS Assay for Activators of Human Muscle isoform 2 Pyruvate Kinase). Details: purified PKM2, Kinase-Glo ATP luminescence; Potency: activation; activation: at 57.5 µM (top of the series), 0% is enzyme alone, no compound.
UniProt P14618, sequence (P14618 whole entry, looked up, canonical isoform): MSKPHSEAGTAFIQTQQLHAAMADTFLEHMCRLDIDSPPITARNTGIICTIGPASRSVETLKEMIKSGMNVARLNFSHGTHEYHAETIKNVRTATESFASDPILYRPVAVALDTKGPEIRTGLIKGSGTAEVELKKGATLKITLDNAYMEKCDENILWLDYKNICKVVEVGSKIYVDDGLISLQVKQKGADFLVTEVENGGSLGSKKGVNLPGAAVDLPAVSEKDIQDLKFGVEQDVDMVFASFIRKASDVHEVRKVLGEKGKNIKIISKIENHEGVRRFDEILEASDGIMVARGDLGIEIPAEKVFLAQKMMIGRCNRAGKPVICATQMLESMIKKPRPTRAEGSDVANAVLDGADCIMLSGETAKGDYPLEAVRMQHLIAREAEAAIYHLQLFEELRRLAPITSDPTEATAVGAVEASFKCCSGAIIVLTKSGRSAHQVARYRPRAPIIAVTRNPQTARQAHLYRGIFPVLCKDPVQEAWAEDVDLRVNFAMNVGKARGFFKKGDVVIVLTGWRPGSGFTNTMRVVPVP
Method in brief: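 Purified hPK-M2 (>95% pure) converted ADP (0.1 mM final) to ATP with 0.5 mM PEP in 50 mM imidazole pH7.2, KCl, MgCl2, Tween 20, BSA; 1 h at room temperature. ATP detected by Kinase-Glo luminescence.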
`Cc1onc(-c2ccccc2Cl)c1C(=O)Nc1ccc(S(=O)(=O)Nc2nccs2)cc1` was tested, and the Potency was inconclusive: 25.1 µM [rising, partial curve].
For `CN(C)CCNC(=S)NC1CCCCC1`, the Potency was inconclusive: 35.5 µM [rising, single point].
With `COc1ccc(C/C(N)=N/OC(=O)c2cccc([N+](=O)[O-])c2)cc1` the Potency was inconclusive: 22.4 µM [rising, single point].
With `C=C(Cl)COc1ccc2c(CCC)cc(=O)oc2c1` the Potency was inconclusive: 20 µM [rising, single point].
`COc1cccc(OCC(=O)N(C)Cc2nc(-c3cccc(C)c3)no2)c1` was tested, and the “activation” value was inactive: 4.73%.
`Cc1ccc(S(=O)(=O)N(C(=O)c2ccncc2)c2ccc(OC(=O)c3ccncc3)c3ccccc23)cc1` was tested, and the Potency was inconclusive: 2.82 µM [rising, full curve].
With `Cn1c(=O)n(C)c2cc(NS(=O)(=O)c3ccccc3[N+](=O)[O-])ccc21` the Potency was inconclusive: 15.8 µM [rising, partial curve].
In the case of `CCn1cc(C(=O)NCc2ccco2)c(=O)c2cc(S(=O)(=O)N3CCC(C)CC3)ccc21`, the “activation” value is reported as inactive: -19.3%.
In the case of `O=C(Cc1cccs1)Nc1ccc(S(=O)(=O)N2CCCC2)cc1`, the Potency is reported as inconclusive: 22.4 µM [rising, single point].
For `Cc1nc2sc(C(c3ccco3)N3CCN(c4ccc(F)cc4)CC3)c(O)n2n1` (centres undefined), the Potency was inconclusive: 15.8 µM [rising, partial curve].
`S=C(Nc1ccccc1)N1CCN(C(=S)c2ccccc2)CC1` was tested, and the Potency was inconclusive: 31.6 µM [rising, single point].
With `O=C1c2cc(S(=O)(=O)NCCO)ccc2-c2ccc(S(=O)(=O)NCCO)cc21` the Potency was active: 5.62 µM.
In the case of `O=C(/C=C/c1cccc([N+](=O)[O-])c1)NCCSc1ccccc1`, the Potency is reported as inconclusive: 3.55 µM [rising, partial curve].
For `Cc1cc(C)n2nc(CNS(=O)(=O)c3ccc(F)c(C)c3)nc2n1`, the Potency was inconclusive: 35.5 µM [rising, single point].
For `CC(C)(C)c1ccc(OC(=O)Nc2ccc(O)c(C(=O)O)c2)cc1`, the “activation” value was inactive: -1.08%.
In the case of `O=c1[nH]c(N/N=C/c2cc3c(cc2[N+](=O)[O-])OCO3)nc2ccccc12`, the Potency is reported as active: 39.8 µM.
In the case of `Cc1ccc(/C=c2\s/c(=C(/C#N)C(=O)N3CCCC3)n(Cc3ccco3)c2=O)s1`, the Potency is reported as inconclusive: 15.8 µM [rising, partial curve].
For `CCNC(=S)N/N=C/c1cc(Br)cc(Br)c1OC`, the “activation” value was inactive: 1.58%.
`O=c1c(O)c(-c2cccs2)oc2ccccc12` was tested, and the “activation” value was inactive: 0.618%.
With `Cc1noc(C)c1COC(=O)COc1ccc2c(C)cc(=O)oc2c1` the Potency was inconclusive: 35.5 µM [rising, single point].
`Cc1ccc(CN2CC(C(=O)Nc3nnc(SCc4c(Cl)cccc4Cl)s3)CC2=O)cc1` (centres undefined) was tested, and the “activation” value was inactive: -10.5%.
In the case of `CCOC(=O)N1CCN(/C=C(\C#N)c2nc3ccccc3s2)CC1`, the “activation” value is reported as inactive: 2.07%.
In the case of `O=C(Nc1ccc(N2CCOCC2)c(Cl)c1)c1ccc(-n2cnnc2)cc1Cl`, the Potency is reported as inconclusive: 17.8 µM [rising, partial curve].
With `COc1ccc(C(=O)NC(C)c2nc3ccccc3n2C)cc1OC` (centres undefined) the “activation” value was inactive: -21.4%.
With `COc1ccccc1C1C(C#N)=C(N)Oc2cc(C)n(CCCn3ccnc3)c(=O)c21` (centres undefined) the Potency was inconclusive: 20 µM [rising, partial curve, poor fit].
In the case of `COc1ccc(OCCCC(=O)Nc2nc(-c3ccccn3)cs2)cc1`, the Potency is reported as inconclusive: 39.8 µM [rising, single point].
`Clc1ccc(C2=NNC(=NCc3ccc4c(c3)OCO4)SC2)cc1` was tested, and the Potency was inconclusive: 35.5 µM [rising, single point].
`Cc1ccc(-n2nc(C)c3c(C)cc(=O)[nH]c32)cc1` was tested, and the “activation” value was inactive: 14.9%.
For `O=c1c2ccccc2nc(-c2ccco2)n1/N=C/c1ccccc1O`, the Potency was inconclusive: 25.1 µM [rising, single point].
With `Cc1ccc(CNC(=O)[C@H]2C[C@@H]2[C@H](NP(=O)(c2ccccc2)c2ccccc2)c2ccccc2)o1` the Potency was inconclusive: 28.2 µM [rising, single point] and inconclusive: 22.4 µM [rising, single point].
`Cc1cccc(-c2ccc(C=Nc3c(C)n(C)n(-c4ccccc4)c3=O)o2)c1` was tested, and the Potency was inconclusive: 6.31 µM [rising, single point].
`c1ccc(Cn2nnc3c(N4CCc5ccccc5C4)ncnc32)cc1` was tested, and the Potency was active: 14.1 µM.
For `O=C(/C=C/c1ccccc1Cl)c1cccnc1`, the “activation” value was inactive: 23.7%.
With `C=CCNC(=O)c1c2c(nc3ccccc13)-c1ccccc1CC2` the Potency was inconclusive: 0.891 µM [rising, single point].
In the case of `CCCCCCC(=O)N(O)C1CC(=O)N(c2ccc(Cl)cc2)C1=O` (centres undefined), the Potency is reported as inconclusive: 25.1 µM [rising, single point].
For `CC(=O)c1c(C)[nH]c(C(=O)Nc2ccc(Cl)c(S(=O)(=O)N3CCOCC3)c2)c1C`, the Potency was inconclusive: 3.16 µM [rising, partial curve, poor fit].
With `Cc1cc(C)cc(C(=O)NCC(=O)OCC(=O)N2CCN(S(=O)(=O)c3ccc4ccccc4c3)CC2)c1` the Potency was inconclusive: 25.1 µM [rising, single point].
In the case of `O=C(O)CCc1ccc(-c2ccc(Br)cc2)o1`, the Potency is reported as inconclusive: 22.4 µM [rising, single point].
With `O=C(CSc1nnnn1C1CCCCC1)N1CCOCC1` the Potency was inconclusive: 39.8 µM [rising, single point].
With `COc1cc(/C=C2\SC(=O)N(CC(=O)Nc3ccc(C)cc3)C2=O)cc(Cl)c1OCC(=O)O` the “activation” value was inactive: 19.2%.
`CC(=O)Nc1cccc(OCC(=O)/C=C2\N(C)c3ccccc3C2(C)C)c1` was tested, and the Potency was inconclusive: 0.794 µM [rising, partial curve].
With `O=C1N=c2ccccc2=C1c1c(O)n(-c2cccc(F)c2)[nH]c1=O` the Potency was inconclusive: 7.94 µM [rising, full curve, poor fit].
With `COc1coc(C(O)C[N+](=O)[O-])cc1=O` (centres undefined) the “activation” value was inactive: -1.57%.
With `COCCCN(CCNC(=O)c1ccc(NC2=NC3CS(=O)(=O)CC3S2)cc1)Cc1ccco1` (centres undefined) the Potency was inconclusive: 39.8 µM [rising, single point].
